Data from PubChem BioAssay AID463173 (ICCB-Longwood Screening Facility, Harvard Medical School, 2010).
The whole screen tested about 52,000 compounds, of which about 4,300 (8.3%) were called active. Rule as the data show it: active = survival mostly below about 52% (no sharp cut-off); inactive = mostly above about 56%. This is one part of the list.

Test system: DeltatarO mutant
Test: growth inhibition of S. aureus wild type versus tarO mutant, primary screen, teichoic acid synthesis inhibitors, RN4220, OD600 (AID 463173)
Details: OD600, 18 h, stronger effect = lower value, screened at 18.75 µg/mL (by protocol)

| Structure (SMILES) | survival |
| --- | --- |
| O=C(COC(=O)c1ccco1)Nc1nc2ccccc2s1 | inactive: 76% |
| CCOc1ccccc1NC(=O)C1CCN(S(=O)(=O)Cc2ccccc2)CC1 | inactive: 62% |
| Cc1cc(=O)n(C(C)C(=O)NCc2ccccc2Cl)c2c1c(C)nn2-c1ccccc1 (centres undefined) | inactive: 99% |
| COc1ccc(NC(=O)c2ccc(-c3cccc(Cl)c3C)o2)cc1 | active: 16% |
| CCn1c(CN2CCCCC2)nc2cc(NC(=O)COc3ccc([N+](=O)[O-])cc3)ccc21 | inactive: 66% |
| CCCSc1nnc(CN2CCOCC2)n1C | inactive: 89% |
| CC(NC(=O)Cc1ccc(NC(=O)N2CCCCc3ccccc32)cc1)c1ccccc1 (centres undefined) | inactive: 87% |
| COc1ccc(-c2nc(CSc3nc4ncccc4[nH]3)c(C)o2)cc1OC | inactive: 67% |
| CC(NC(=O)c1ccc(N2Cc3ccccc3Oc3ncccc32)s1)c1ccccc1 (centres undefined) | inactive: 83% |
| CCOC(=O)C(C)NC(=O)c1cc2c(=O)[nH]c3ccc(C)cc3c2s1 (centres undefined) | inactive: 57% |
| O=C(NCCc1ccc(Cl)cc1)c1ccc2c(c1)N(Cc1ccc(F)cc1Cl)C(=O)CS2 | inactive: 49% |
| Cc1c(Cl)cccc1NC(=O)C(=O)NCCc1csc(-c2cccc(F)c2)n1 | inactive: 76% |
| CCc1ccccc1N1CC(c2nc3ccccc3n2CCC2CCCCC2)CC1=O (centres undefined) | active: 10% |
| COc1cccc(NS(=O)(=O)c2ccc3[nH]cc(C(=O)N(C)Cc4ccco4)c(=O)c3c2)c1 | inactive: 85% |
| CC(C)c1ccc(NC(=O)CSC2=Nc3ccccc3C3=NC(CC(=O)NCc4ccco4)C(=O)N23)cc1 (centres undefined) | inactive: 73% |
| O=c1c2ccccc2n2c(-c3cccc(F)c3)nnc2n1Cc1ccccc1 | inactive: 92% |
| CCOC(=O)N1CCN(C(=O)c2cnn(-c3cccc(C)c3)c2-n2cccc2)CC1 | inactive: 94% |
| Cc1ccc(-n2nc(C)c(C(=O)NCCCN3CCN(c4ccccc4F)CC3)c2-n2cccc2)cc1 | inactive: 131% |
| COc1ccc(C(=O)Nc2ccc3c(c2)N(C)C(=O)c2ccccc2S3)cc1OC | inactive: 72% |
| CCOC(=O)c1cnc2c(C)cc(C)cc2c1Nc1ccc(N2CCOCC2)cc1 | active: 14% |
| Cc1nnc(NC(=O)CSc2ncccn2)s1 | inactive: 77% |
| CN(Cc1ccccc1)C(=O)c1ccc2c(c1)N(Cc1ccc(Cl)cc1)C(=O)c1ccccc1S2=O (centres undefined) | inactive: 71% |
| CCCOc1ccccc1C(=O)Nc1nc2c(s1)CCCC2 | inactive: 107% |

| Structure (SMILES) | survival |
| --- | --- |
| Cc1cccc(C)c1OCc1cc(=O)n2ccsc2n1 | inactive: 64% |
| COc1cc(OC)cc(C(=O)Nc2ccc(O)c(-c3nc4cc(C)c(C)cc4o3)c2)c1 | inactive: 77% |
| COc1cc(OC)c(NC(=O)C(C)n2nc(-c3ccc(C)c(C)c3)ccc2=O)cc1Cl (centres undefined) | inactive: 64% |
| CC(=O)Nc1ccc(S(=O)(=O)NC(=O)CC(C)C)cc1 | inactive: 93% |
| Cc1cccc(N2CCN(C(=O)c3c4c(nc5ccccc35)C(=O)N(C3CCCCC3)C4)CC2)c1C | inactive: 118% |
| Cc1cc(SCCOc2ccccc2)nc(N)n1 | inactive: 95% |
| COc1ccc(OC)c(NC(=O)c2cc3c(=O)n4cccc(C)c4nc3n2C)c1 | inactive: 65% |
| Cc1ccc(N(C)C(=O)c2noc3c2CCCCC3)cc1C | inactive: 69% |
| COC(=O)c1c(NC(=O)CCCOc2ccccc2C)sc2c1CCC2 | active: 4% |
| O=C(NCCCO)c1ccc(CSc2nc3ccccc3c(=O)[nH]2)cc1 | inactive: 114% |
| Cc1ccc(C)c(NS(=O)(=O)c2ccc3c(c2)CCCN3C(=O)C2CCC2)c1 | inactive: 85% |
| O=C(NCc1ccccc1F)C(=O)NCC(c1ccco1)S(=O)(=O)c1ccccc1 (centres undefined) | active: -5% |
| COC(=O)c1ccc2c(c1)n(CCO)c(C)[n+]2CCO | inactive: 80% |
| COc1ccc(C(C(=O)NCc2ccccc2)N(C(=O)Cn2nnc3ccccc32)c2ccc(OC)cc2)cc1 (centres undefined) | inactive: 60% |
| CCCN1Cc2cccc(C(=O)Nc3ccc(OC)cc3OC)c2C1=O | inactive: 82% |
| Cc1ccc(NC(=O)N2CCc3c([nH]c4ccccc34)C2c2ccccc2F)c(Cl)c1 (centres undefined) | inactive: 89% |
| O=C(Cn1c(=O)c2sccc2n(CC(=O)Nc2ccc(Cl)cc2Cl)c1=O)NCCc1ccccc1 | inactive: 79% |
| COc1cccc(C(=O)c2cn(CC(=O)Nc3cccc(Cl)c3C)c3nc(C)ccc3c2=O)c1 | inactive: 78% |
| CSc1ncc(C(=O)NCc2cccc(Br)c2)c(-c2ccccc2)n1 | inactive: 83% |
| O=C(CSc1nc(-c2ccccc2)cc(=O)[nH]1)Nc1ccccc1 | inactive: 77% |
| COCCN1C(=O)c2oc3ccc(C)cc3c(=O)c2C1c1ccc(C(=O)OC)cc1 (centres undefined) | inactive: 74% |
| Cc1cc(C)cc(NC(=O)Nc2c[nH]c(=O)[nH]c2=O)c1 | inactive: 82% |
| COc1ccc(NS(=O)(=O)c2cc3c4c(c2)CC(=O)N4CCC3)cc1Cl | inactive: 115% |

| Structure (SMILES) | survival |
| --- | --- |
| O=C(NC1(C(F)(F)F)N=C(c2ccccc2)N(C2CCCCC2)C1=O)c1ccccc1F (centres undefined) | inactive: 68% |
| CCn1c(CN2CCC(C)CC2)nc2cc(NC(=O)c3cccc([N+](=O)[O-])c3)ccc21 | inactive: 85% |
| COc1ccc(OC)c(CCNc2ncnc3onc(C)c23)c1 | inactive: 107% |
| CC(=O)Nc1nnc(C(C)C)s1 | inactive: 77% |
| COC(=O)c1cc2sc(Cl)cc2n1Cc1nc(-c2ccccc2F)oc1C | inactive: 119% |
| Cc1ccc(CCNC(=O)c2ccc(CNS(=O)(=O)c3ccc(F)cc3)cc2)cc1 | inactive: 83% |
| CC(=O)N1CCc2c(sc(NC(=O)CSc3ccc(C)cc3)c2-c2nc3ccccc3s2)C1 | inactive: 92% |
| CCOC(=O)C1=C(CS(=O)(=O)c2ccc(F)c(C)c2)NC(=O)NC1c1ccc(F)c(F)c1 (centres undefined) | inactive: 83% |
| COC(=O)COc1ccc(S(=O)(=O)N2CCCCC2)cc1C | inactive: 72% |
| Cc1c(C(=O)Nc2ccccc2Cl)oc2ccc(S(=O)(=O)N3CCCCCC3)cc12 | inactive: 75% |
| Cc1cccc(N2CCN(C(=O)c3cccc(-n4c(C)nc5cccnc54)c3)CC2C)c1 (centres undefined) | inactive: 71% |
| CC(=O)c1ccc(N2C(=O)N(Cc3cccc(C(F)(F)F)c3)c3ccccc3S2(=O)=O)cc1 | inactive: 78% |
| O=C1C2C3c4ccccc4C(c4ccccc43)C2C(=O)N1Cc1ccccn1 (centres undefined) | inactive: 83% |
| CC(=O)Nc1ccc(NC(=O)CCCc2nc(-c3ccc(C(C)(C)C)cc3)no2)cc1 | inactive: 45% |
| CC1=C(C(=O)OC2CCCC2)C(c2ccc(F)cc2F)CC(=O)N1 (centres undefined) | inactive: 85% |
| Cc1ccc(CS(=O)(=O)c2cn(CC(=O)N(C)c3ccccc3)c3ccccc23)cc1 | inactive: 67% |
| Cc1nc2scc(C)n2c(=O)c1S(=O)(=O)NCc1ccccc1Cl | inactive: 158% |
| O=C1NN=C(Cc2ccccc2)C1CCO (centres undefined) | inactive: 91% |
| CCOc1cc(C(=O)Nc2ccc3oc(-c4ccc(F)cc4Cl)nc3c2)cc(OCC)c1OCC | inactive: 64% |
| Cc1ccc(NC(=O)c2cc(C)nn2-c2ccccc2)cc1 | inactive: 124% |
| COc1ccc(N(Cc2cccs2)C(=O)c2ccccc2C)cc1 | inactive: 81% |
| COc1ccccc1CNC(=O)CC1N=C2c3ccccc3N=C(SCC(=O)Nc3ccc(F)cc3)N2C1=O (centres undefined) | inactive: 125% |
| COc1ccccc1Nc1nn2c(=O)c3ccc(C(=O)N4CCC(C)CC4)cc3nc2s1 | active: 52% |

| Structure (SMILES) | survival |
| --- | --- |
| O=C(Cn1nc(-c2ccccc2)ccc1=O)NCc1ccc(F)cc1Cl | inactive: 120% |
| COc1ccc(S(=O)(=O)Nc2cccc(-c3ccc(N4CCOCC4)nn3)c2)cc1F | inactive: 88% |
| COc1cc(NC(=O)c2c(-c3ccc(C)cc3)nnc3ccccc23)cc(OC)c1OC | inactive: 69% |
| Cc1oc2c(c1C(=O)Nc1cccc(Br)c1)C1=NCCN1C=N2 | inactive: 62% |
| Cc1cc2cc(C(c3nnnn3Cc3ccco3)N3CCN(C(=O)c4ccco4)CC3)c(=O)[nH]c2cc1C (centres undefined) | inactive: 96% |
| O=C(c1nc(-c2ccc(Cl)cc2)n2c1CCCCC2)N1CCN(c2ccccc2F)CC1 | inactive: 83% |
| Cc1cccc(C(=O)Nc2c3c(nn2-c2ccc(Cl)cc2)CS(=O)(=O)C3)c1 | inactive: 74% |
| O=[N+]([O-])c1cc(-c2nc(-c3ccccc3)no2)ccc1NCC1CCCO1 (centres undefined) | inactive: 63% |
| CCOC(=O)c1ccc2c(c1)N(Cc1cccc(OC)c1)C(=O)c1ccccc1S2(=O)=O | inactive: 80% |
| CC(C)(C)OC(=O)N1CCC(c2c(C(=O)NC3CCN(Cc4ccccc4)CC3)cnn2-c2cccc(F)c2)CC1 | inactive: 92% |
| CCOC(=O)c1c(-c2ccccc2)oc2ccc(NS(=O)(=O)c3ccc(OC)cc3)cc12 | inactive: 60% |
| COc1ccc(OCC(=O)NCC2(N3CCN(C)CC3)CCCCC2)cc1 | inactive: 68% |
| COc1cc(C2C(=O)N(C3CCCCC3)CC(=O)N2C2CCCC2)ccc1OC(C)C (centres undefined) | inactive: 77% |
| COC(=O)CN1C(=O)C(C)(C)Oc2ccc(C(=O)Nc3cccc(OC)c3)cc21 | inactive: 80% |
| O=C(CSc1nc(-c2ccc(F)cc2)cc(C(F)(F)F)n1)NCc1ccccc1 | inactive: 62% |
| CC1CCN(c2ccc(NC(=O)c3cccc(Cl)c3)cc2C(=O)O)CC1 | inactive: 87% |
| Cc1ccc(-c2cc(C(=O)NC(C)c3ccccc3)c3ccccc3n2)cc1C (centres undefined) | inactive: 67% |
| CC1CCN(S(=O)(=O)c2ccc(NC(=O)Nc3ccccc3)cc2)CC1 | active: 9% |
| CC(=O)Nc1ccccc1-c1nc2ccccc2n(CC(=O)c2ccc(C)c(C)c2)c1=O | inactive: 104% |
| CCC(CC)C(=O)Nc1ccc(OCc2cc(=O)n3ccsc3n2)cc1 | inactive: 99% |
